# Results published in publication PMC10668032.
# This is one part of the list. At the low end of the ranking, values are background and their order means little.
# Target: SIX1-Q177R homeodomain (UniProt Q15475)
# Assay: universal protein binding microarray
# Conditions: Universal all-10-mer PBM (8x60K, AMADID 030236), 300 nM GST-tagged protein, Alexa Fluor 488 anti-GST; buffer, salt, pH and temperature not stated; high values mean tight binding; most listed sequences are background and not binding sites; double strand, one strand shown
row,Sequence,binding signal [E-score]
1,CAAGGGAG,0.00352
2,AAACTTAA,-0.237
3,AAGTCCCG,-0.169
4,CTCGGAAG,-0.0441
5,CTGTTCGA,-0.183
6,TACATGCA,-0.0265
7,TATTGGGA,0.0187
8,AAGGGGTG,0.227
9,CGTGGATA,0.0791
10,CGCGATAG,-0.112
11,AAGATGTG,-0.00104
12,AGTTCCAG,-0.0276
13,GATAAACA,0.00274
14,CCATTTTA,0.0355
15,AAGAACGA,-0.0291
16,CATCAGCG,0.153
17,GAACACAA,0.13
18,CCTGATTC,-0.182
19,AAACGCCC,-0.0508
20,CAAGGGGA,-0.0885
21,CCTGGACC,-0.103
22,ATTTGGTA,0.00694
23,CTAAGTAA,-0.16
24,CCGCTGAA,-0.13
25,AAGGCCTG,-0.215

row,Sequence,binding signal [E-score]
1,AATATGCG,-0.0226
2,CTCGGAGC,-0.0463
3,AAATTCAT,-0.176
4,GGAGGCTA,0.0196
5,GACGCTTA,0.047
6,CCAAACCC,0.0736
7,GGCCAACA,0.217
8,GCCCTCGA,-0.104
9,ACGGGAGA,0.0309
10,AATAAGCT,-0.0358
11,GAGTGCAA,0.144
12,AAAGATGA,0.0114
13,CACTAAAA,0.0649
14,CGCCAAAC,-0.0379
15,CTCATATC,-0.25
16,AATGTTAC,-0.081
17,ACGTCCTG,-0.0852
18,GTCGTGAA,0.017
19,TCCGTCAA,-0.204
20,ACTTGCGA,0.0486
21,CTTGATCC,0.151
22,CAAGGAAA,-0.166
23,ATTTGTTA,-0.282
24,CAACACTC,0.36
25,AACGTAGG,-0.0932

row,Sequence,binding signal [E-score]
1,ATGTCCTC,-0.0974
2,AGTATAAA,-0.103
3,CCTCAGAC,-0.0762
4,GCAGGGCA,-0.062
5,AATGGTAT,0.227
6,CACTCGCG,0.232
7,CTCAAGAC,-0.0575
8,CGTTGGTC,-0.0903
9,CAACGCCC,0.00874
10,CTTGGCCA,-0.0399
11,CTCGTCAG,-0.00466
12,AGACGACG,-0.0138
13,AGTGGCGG,-0.0362
14,ACCCTAGC,0.15
15,GCAATCCC,-0.0647
16,CGGGACCA,-0.235
17,GTAACTGA,-0.0896
18,ACAACCCA,0.0452
19,AAGGAGAA,-0.186
20,CCAACGTC,-0.092
21,GTCTAATA,0.0285
22,ACTATAGT,0.00543
23,ATTCACCG,-0.286
24,CTAGCGTA,0.0681
25,AAGTCGCA,-0.144

row,Sequence,binding signal [E-score]
1,ACGACGCG,0.0486
2,TTTCCAAA,-0.00331
3,AAATCGTA,-0.122
4,CATGCACG,0.0334
5,CGTCAAGC,-0.0428
6,GGACGGGA,-0.224
7,ACGCTCAC,0.00977
8,GGGTTAAA,0.214
9,CGAATTTA,-0.00042
10,CCACCTCA,0.0301
11,CCTTGCAC,-0.0404
12,ATGTACGA,0.113
13,ACTAGGTA,0.0396
14,TATACATA,-0.131
15,CGGAGGGC,-0.0217
16,TCCCACCA,-0.00146
17,TAGTCGAA,-0.0878
18,AACAGCTT,-0.164
19,ACGGGGCT,-0.123
20,AATGGCCC,-0.276
21,TGAGAACA,0.0348
22,ATATATAT,-0.145
23,CGGGGCCA,-0.0178
24,CCACGCCG,-0.0403
25,CACTATAC,0.261

row,Sequence,binding signal [E-score]
1,ACATCCGT,-0.0748
2,ACAAGTCA,-0.233
3,AATAGTCT,-0.254
4,GGGTGTGA,0.429
5,ATGGCTTG,-0.0562
6,AGGTGAAT,-0.033
7,ACGCTATG,0.0111
8,ATGGAACA,0.0415
9,ACGATAGG,0.0593
10,ATTCATTA,-0.0362
11,GTACATTA,-0.00548
12,TCTCATCA,-0.0864
13,CATCTTTC,0.0146
14,CGTTCATA,-0.0546
15,ACTAATAA,-0.198
16,ACGCACCA,0.134
17,CATTGGGA,-0.21
18,ATTCAGGC,-0.243
19,AAATTCCC,-0.156
20,GCTGAAGA,-0.312
21,CCGGCTCA,0.0414
22,AGACGTCC,-0.192
23,GCCTTCAC,-0.119
24,AGATATGG,-0.113
25,GTCTGATA,0.0761

row,Sequence,binding signal [E-score]
1,AGGTGATC,-0.0504
2,ACCGACCT,0.0331
3,TACTTGGA,-0.0133
4,GACCAGGA,-0.00609
5,AGCGCGAT,-0.0565
6,ACAAAGGG,-0.0167
7,ACACCGGA,0.476
8,AAAAGACC,-0.205
9,AAGATGCC,-0.145
10,CAACATGC,-0.303
11,CGAGTGCA,0.129
12,GGACGGCA,-0.204
13,TCTGTCAA,-0.231
14,AGTTCACC,0.0502
15,AGAGTGGG,-0.0117
16,GCGATCGC,-0.0966
17,CATATAAA,-0.2
18,CTGCTCAA,-0.097
19,ACTTGCAT,-0.128
20,CACCCTCG,0.349
21,AAAATTCG,0.00079
22,GTCGCGTA,0.0906
23,GGGTTGTA,0.169
24,GTCTGTTA,-0.0735
25,GACCACTC,-0.157

row,Sequence,binding signal [E-score]
1,ACTAAACT,-0.263
2,CTTTCTTA,-0.153
3,GGACCGAA,-0.205
4,GCATCCAA,-0.172
5,ACCTCTCG,0.0171
6,GTTGAAGA,-0.0577
7,CGACGTTC,-0.262
8,CAAATGAA,-0.158
9,AATCTAAG,-0.18
10,AACTCAGT,-0.0907
11,CAGCTACA,0.191
12,TAATCCGA,-0.0462
13,TCGTGTAA,0.434
14,AGACATAT,-0.246
15,TACAATGA,0.114
16,AGGTCCAA,-0.128
17,AATGCCAC,-0.0469
18,CCGGGCGC,-0.105
19,TGTAAGAA,0.294
20,ACGATTTG,-0.0386
21,AAGTACTC,-0.0367
22,ATAATTTC,-0.135
23,GTATAATA,-0.00724
24,CCTTTCGC,-0.219
25,GAAGCGTC,-0.0106

row,Sequence,binding signal [E-score]
1,ACGGTGTG,0.367
2,CCGGATGA,-0.000585
3,AATAGGCT,-0.0795
4,CTAAAGGA,-0.0636
5,ACTTAATA,-0.0802
6,CATAGGTC,-0.183
7,ATCACGTA,0.0973
8,GAGGACTC,-0.0825
9,CAACGGTA,-0.021
10,GCGGTTTA,-0.0362
11,ACATAGAG,-0.0519
12,CTTCATGC,-0.178
13,AACTGGGA,0.0519
14,AGGCCCAA,-0.311
15,ATGCGAAT,-0.329
16,CAATGAGC,-0.0904
17,ATGCAGTG,0.232
18,CACCGCGG,0.351
19,CACCCAGG,0.284
20,CGCGATTC,0.016
21,GAGGATAA,0.0709
22,AGAGTGAC,-0.0875
23,ATAGTTCC,-0.232
24,GCTGTCGA,-0.332
25,CTGGACCA,-0.154

row,Sequence,binding signal [E-score]
1,AAAATGAC,-0.0334
2,AGCCTCCT,-0.276
3,ACAGAACG,-0.0743
4,ACCCGAGC,0.146
5,ACACAGCG,0.196
6,ACTCTGCG,0.0339
7,CACCAATG,0.222
8,ACACTATA,0.322
9,TAGGCCTA,-0.144
10,CTTTTATA,-0.238
11,ATCAGGTG,0.224
12,AGACTAGG,-0.218
13,CCGTTATA,0.101
14,CTAAGGAG,-0.0501
15,CCGTGCAC,0.198
16,CAAAGCAA,0.0161
17,CATGGGAG,-0.0641
18,TTCCCCAA,-0.0193
19,CGAATCGA,-0.0345
20,AAGTCCTA,-0.214
21,AAAGTTGT,-0.197
22,CGCCGCCA,-0.0907
23,CCGGAGTA,0.227
24,GGAGAGCC,-0.0878
25,CGCGGACA,0.0585

row,Sequence,binding signal [E-score]
1,GTTGGTTA,0.129
2,AAGGGGAC,-0.181
3,CGCGCCAG,-0.0751
4,CATCCGCC,-0.0303
5,ACAGCAAG,-0.156
6,ATCTCTTA,-0.0975
7,AAAAGCTC,-0.276
8,ATGGTTGG,-0.0836
9,CCGTAACG,0.0194
10,ATTGCCCA,-0.0279
11,CGGTACAA,-0.102
12,GTTGTCAA,-0.0409
13,CAAAGATA,-0.0257
14,CGCCGAGC,-0.25
15,AATTGACC,0.112
16,AACCGGGC,-0.186
17,CAAACAAC,-0.00032
18,CATAGGCC,-0.122
19,GAGCCCCC,-0.166
20,CACATGCA,0.103
21,ATGCTTAA,-0.0996
22,ATGATATA,-0.243
23,GCTAGCCA,-0.238
24,ATGTTGGA,0.00122
25,CCGTGTCG,0.441

row,Sequence,binding signal [E-score]
1,CTTCTTGA,-0.155
2,AAATCCTG,-0.258
3,AGACCCAG,-0.0324
4,CAGGTCGG,-0.00688
5,CATAGATA,-0.244
6,CATAGGCA,-0.143
7,CCCTGAGC,0.0966
8,CCGTCCAA,-0.154
9,CAGAAGAG,-0.176
10,CAGCTTAG,-0.13
11,AACGCTGT,-0.0876
12,AAGAAAAT,-0.165
13,CACATTGC,0.0902
14,AAAGTTTG,-0.27
15,ACCGTGCC,0.179
16,AGCGGACG,-0.237
17,TAACAAGA,-0.232
18,TGCTAGCA,0.0725
19,CATACCTC,-0.0402
20,CACAAAAA,-0.00359
21,CGGAATCA,-0.0125
22,TATTGTAA,-0.0985
23,AACGGTCT,-0.0786
24,CCTGGTGA,0.114
25,CAGACAAC,0.0599

row,Sequence,binding signal [E-score]
1,AGTTACAC,0.449
2,ACCGTGCG,0.142
3,AGGAGTGG,0.11
4,GGCTCTAC,-0.135
5,AAACCCCC,0.24
6,AAGTATGC,-0.0659
7,TCCTCCGA,0.0575
8,ACGTATGG,-0.207
9,CTCTCAAC,0.121
10,TAAATCTA,-0.163
11,GCACGAAA,0.091
12,TCCCCGCA,0.0113
13,ACGAAAAC,-0.0287
14,GACTGGAA,-0.186
15,GAAGCTCA,-0.335
16,GAAAGAAA,-0.221
17,GCCAAAGA,-0.214
18,GCCATTCC,-0.0898
19,ACCCCAGC,0.235
20,AGGCGCCA,-0.197
21,TAAATTAA,-0.186
22,AATTAAAC,-0.0327
23,CTGCTACA,0.146
24,ACGGTAGT,-0.0511
25,AGGAATGG,-0.0759

row,Sequence,binding signal [E-score]
1,ACGATGGA,0.0544
2,TGTGAACA,0.327
3,CACCCTTA,0.263
4,GTACATAC,0.141
5,CCTTGACA,0.253
6,ATACCGAC,0.173
7,TCGAGCAA,-0.165
8,CTGGAGAC,-0.067
9,CCATCTCA,-0.0451
10,GCAGCTGC,-0.289
11,GTATATTA,0.134
12,GGCGAAGA,-0.000985
13,ATGGCCCC,-0.0495
14,ATCCAGGG,-0.0101
15,ATCAGAAG,-0.15
16,GACTCAAC,-0.0127
17,AGGGCGTG,0.169
18,CCCCTTCG,0.0545
19,CGCCTCAC,-0.112
20,CGGGTCAC,0.246
21,ACAGTAAC,-0.131
22,AATGAGAC,-0.239
23,ACGGCCTA,0.00957
24,ATGGGTTC,-0.0503
25,CAAGTAGG,0.0998

row,Sequence,binding signal [E-score]
1,GAAACTGC,-0.122
2,CTCGCAGA,-0.0285
3,ACTATGTG,0.17
4,ACACTCTC,0.391
5,AGCTCGAG,-0.0947
6,TAGGTGAA,-0.0826
7,GATCTGGC,-0.0505
8,CAGTACTC,-0.13
9,ATCTTACA,0.262
10,CCCGAGAA,0.0289
11,ATTACGAC,0.037
12,CTCCGGGA,0.0182
13,AAGTTTGT,-0.174
14,CACACCCA,0.382
15,AGTGGGGC,0.0484
16,CTCAACTC,-0.19
17,ATCGGTAA,-0.0123
18,GAGTGGCA,-0.166
19,TCGCCAAA,-0.284
